A short description of this series: xn = mol fraction of the nth substance listed. To be noted: 283.15 K, 101 kPa.

Molecules are shown by their SMILES. Some of these densities may be calculated back from excess volumes.

Turning to `CCOS(=O)(=O)[O-].CC[n+]1cccc(C)c1` + Cc1ccc(C)cc1, the mass density (x2 = 0) stood at 1230.7 kg/m3; the mass density (x2 = 0.0494) amounted to 1221.4 kg/m3; the mass density (x2 = 0.1138) is on record as 1208.2 kg/m3; the mass density (x2 = 0.1401) turned out to be 1202.8 kg/m3; the mass density (x2 = 0.1696) is 1196.6 kg/m3; the mass density (x2 = 0.187) was 1192.6 kg/m3. For the same compound, the mass density (x2 = 0.1972) is 1190.4 kg/m3.

In turn, `Cc1ccccc1C` + CCCCCC[n+]1ccn(C)c1.O=S(=O)([N-]S(=O)(=O)C(F)(F)F)C(F)(F)F showed a mass density (x1 = 1) of 888.1 kg/m3.

For the setting “x1 = 1”, `Cc1ccccc1` + CC[n+]1ccn(C)c1.O=S(=O)([N-]S(=O)(=O)C(F)(F)F)C(F)(F)F yielded a mass density of 876.1 kg/m3.

As for `CC[n+]1cccc(C)c1.O=S(=O)([N-]S(=O)(=O)C(F)(F)F)C(F)(F)F` + c1ccccc1, the mass density runs as follows: (x2 = 0) 1503.1 kg/m3; (x2 = 0.0451) 1494.4 kg/m3; (x2 = 0.0992) 1483.4 kg/m3; (x2 = 0.2018) 1459.8 kg/m3; (x2 = 0.2845) 1438.1 kg/m3; (x2 = 0.3887) 1405.9 kg/m3. The mass density was determined as 1364.5 kg/m3 (x2 = 0.498); 1343.5 kg/m3 (x2 = 0.5447); 1291.9 kg/m3 (x2 = 0.6413); 1224.4 kg/m3 (x2 = 0.7394); 1173.5 kg/m3 (x2 = 0.7983).

Compound `Cc1ccc(C)cc1` + CC[n+]1cccc(C)c1.O=S(=O)([N-]S(=O)(=O)C(F)(F)F)C(F)(F)F gave a mass density (x1 = 1) of 869.6 kg/m3.

Regarding `CCOS(=O)(=O)[O-].CC[n+]1cccc(C)c1` + CCc1ccccc1, the mass density runs as follows: (x2 = 0.1241) 1204.8 kg/m3; (x2 = 0.146) 1199.8 kg/m3; (x2 = 0.1639) 1196.4 kg/m3; (x2 = 0.1732) 1194.9 kg/m3; (x2 = 0.1934) 1190.4 kg/m3.

Regarding `Cc1ccccc1C` + CC[n+]1cccc(C)c1.O=S(=O)([N-]S(=O)(=O)C(F)(F)F)C(F)(F)F, the mass density (x1 = 1) worked out at 888.1 kg/m3.

Consider `CCC[n+]1cccc(C)c1.O=S(=O)([N-]S(=O)(=O)C(F)(F)F)C(F)(F)F` + CCc1ccccc1, for which the mass density by setting is: (x2 = 0) 1461.7 kg/m3; (x2 = 0.1059) 1434 kg/m3; (x2 = 0.2001) 1407.3 kg/m3; (x2 = 0.4064) 1334 kg/m3; (x2 = 0.5734) 1254.5 kg/m3; (x2 = 0.6056) 1236.7 kg/m3. Further, the mass density (x2 = 0.6379) is given as 1217.6 kg/m3.

For `CCCCCC[n+]1ccn(C)c1.O=S(=O)([N-]S(=O)(=O)C(F)(F)F)C(F)(F)F` + Cc1cccc(C)c1, the mass density worked out at 1385.9 kg/m3 (x2 = 0); 1375.9 kg/m3 (x2 = 0.0548); 1366.2 kg/m3 (x2 = 0.1031); 1316.4 kg/m3 (x2 = 0.3078); 1204.3 kg/m3 (x2 = 0.6095); 1132.6 kg/m3 (x2 = 0.7329).

`Cc1cccc(C)c1` + CCOS(=O)(=O)[O-].CC[n+]1cccc(C)c1 had a mass density (x1 = 1) of 872.7 kg/m3.

Turning to `CCOS(=O)(=O)[O-].CC[n+]1cccc(C)c1` + Cc1ccccc1, the mass density runs as follows: (x2 = 0) 1230.7 kg/m3; (x2 = 0.0517) 1222.6 kg/m3; (x2 = 0.1036) 1214.7 kg/m3; (x2 = 0.2023) 1195.3 kg/m3; (x2 = 0.2751) 1180.3 kg/m3; (x2 = 0.3501) 1163.9 kg/m3. The compound also displayed a mass density (x2 = 0.3661) of 1160.3 kg/m3.

Turning to `CC[n+]1ccn(C)c1.O=S(=O)([N-]S(=O)(=O)C(F)(F)F)C(F)(F)F` + Cc1ccccc1C, the mass density by setting is: (x2 = 0) 1534 kg/m3; (x2 = 0.052) 1518.7 kg/m3; (x2 = 0.1008) 1503.8 kg/m3; (x2 = 0.1995) 1470.6 kg/m3; (x2 = 0.3002) 1432.1 kg/m3; (x2 = 0.5055) 1334.3 kg/m3. Also, the mass density is, setting by setting: (x2 = 0.5062) 1333.7 kg/m3; (x2 = 0.5929) 1283.1 kg/m3.

The compound `Cc1ccccc1` + CCOS(=O)(=O)[O-].CC[n+]1cccc(C)c1 gave a mass density (x1 = 1) of 876.1 kg/m3.

For the compound `CC[n+]1ccn(C)c1.O=S(=O)([N-]S(=O)(=O)C(F)(F)F)C(F)(F)F` + Cc1ccc(C)cc1, the mass density reads like this: (x2 = 0.0987) 1503.3 kg/m3; (x2 = 0.1974) 1469 kg/m3; (x2 = 0.2929) 1431.2 kg/m3; (x2 = 0.4203) 1372.7 kg/m3; (x2 = 0.4663) 1349.2 kg/m3.

Under “x1 = 1”, `Cc1ccccc1C` + CCOS(=O)(=O)[O-].CC[n+]1cccc(C)c1 came in with a mass density of 888.1 kg/m3.

As for `Cc1cccc(C)c1` + CC[n+]1ccn(C)c1.O=S(=O)([N-]S(=O)(=O)C(F)(F)F)C(F)(F)F, the mass density (x1 = 1) is given as 872.7 kg/m3.

Consider `CCC[n+]1cccc(C)c1.O=S(=O)([N-]S(=O)(=O)C(F)(F)F)C(F)(F)F` + Cc1cccc(C)c1, for which the mass density runs as follows: (x2 = 0) 1461.7 kg/m3; (x2 = 0.0566) 1448.3 kg/m3; (x2 = 0.1978) 1410.1 kg/m3; (x2 = 0.3051) 1375.9 kg/m3; (x2 = 0.4105) 1335.9 kg/m3; (x2 = 0.5066) 1293.2 kg/m3. The mass density (x2 = 0.6313) is on record as 1224.7 kg/m3.

Regarding `Cc1ccccc1` + CCC[n+]1cccc(C)c1.O=S(=O)([N-]S(=O)(=O)C(F)(F)F)C(F)(F)F, the mass density (x1 = 1) is recorded as 876.1 kg/m3.

The record behind these values is a compilation of properties of binary mixtures (doi:10.1080/00319104.2013.782546).
